# Laboratory results published in PubChem BioAssay AID686971 (National Center for Advancing Translational Sciences (NCATS), 2013).
# The campaign covered roughly 360,000 compounds. About 7,500 (2.1%) were called active. Inconclusive results, whose numbers are uncertain, are shown with a selection of clear calls. Calls come from the whole dose curve; as a rule, active = well fitted cell-killing curve with a large enough effect; inconclusive = small, poorly fitted or top-dose-only effect, or effect the other way, or another doubt; inactive = no such curve, though single readings can be large or run the other way. Potencies of inconclusive entries are left out as doubtful fits.
# Test: qHTS for induction of synthetic lethality in tumor cells producing 2HG: qHTS for the HT-1080-IDH1KD cell line;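 for activity, negative = toxicity: 0% = DMSO wells and -100% = cell-free medium wells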
# Conditions: HT-1080 IDH1 knockdown viability, ATP luminescence, 48 h; activity, negative = toxicity: at 46.1 µM (top of the series) unless noted
# Summary of the method: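 Assay cells: HT-1080 with IDH1 knockdown, 750 per well, RPMI/5% FBS. Exposure: 48 h at 37 °C following 2 h pre-incubation. Read: CellTiter-Glo luminescence; fitted concentration-response, curve class assigned.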
# Potency is the fitted concentration of half-maximal effect; tags give direction and shape of the fitted curve.
Compound,Potency,"activity, negative = toxicity"
CCCCN(C)S(=O)(=O)c1ccc(C(=O)Nc2nnc(-c3ccco3)o2)cc1,"inconclusive [cytotoxic, partial curve]",
COc1ccc(S(=O)(=O)N2CCOCC2)cc1NC(=O)CSc1nnc2n1CCCCC2,inactive,
COc1ccccc1N1CC(O)=C(c2nc3ccccc3s2)C1=N,"inconclusive [cytotoxic, single point]",
Cc1cccc(/C=C/c2onc(C)c2S(=O)(=O)N2CCC(C(=O)N3CCCCCC3)CC2)c1,inactive,
CN(C)C(CNC(=O)c1ccc2ccccc2c1)c1ccco1 (stereo unspecified),inactive,
CCCCCCN1C[C@H](n2cc(COC(=O)c3ccccc3)nn2)[C@@H](O)C[C@@H]1c1ccc(C)cc1,"inconclusive [cytotoxic, single point]",
CCc1cccc(C)c1NS(=O)(=O)c1cc(Br)cnc1N,"inconclusive [cytotoxic, single point]",
Cn1cccc1Cc1nnc(SCC(=O)NCc2ccco2)n1CCc1ccccc1,inactive,
CCc1ccc(NC(=O)c2ccnc(C(C)(C)C)c2)cc1,inactive,
CC1(C(=O)Nc2ccc3c(c2)OCO3)CCN1C(=O)CCc1cccs1 (stereo unspecified),inactive,
O=C1c2ccccc2C(=O)N1CCCOc1ccccc1,,inactive: 1.46% [at 9.24 µM]
CSc1nc(SCC(=O)NC(c2ccccc2)c2ccccc2)c2c3c(sc2n1)CN(C)CC3,"inconclusive [cytotoxic, single point]",
O=C(CN1CCC(C(O)(c2ccccc2)c2ccccc2)CC1)Nc1ccccc1,"inconclusive [cytotoxic, single point]",
CCOc1ccc(-c2onc(C(F)(F)F)c2-c2cscn2)c(O)c1,"inconclusive [cytotoxic, single point]",
CNCC[C@H](Oc1cccc2ccccc12)c1cccs1,"inconclusive [cytotoxic, single point]",
COC(=O)CCSc1cc(NCCOC(C)=O)c([N+](=O)[O-])c2nonc12,"inconclusive [cytotoxic, single point]",
O=C(COc1ccccc1)N1N=C(c2cccnc2)CC1(O)C(F)(F)F (stereo unspecified),inactive,
Cc1cccc(NC(=S)N/N=C/c2cccc(O)c2)c1C,"inconclusive [cytotoxic, partial curve]",
O=C(/C=C\c1ccccc1)NCC(=O)N/N=C/c1ccc(O)cc1O,"inconclusive [cytotoxic, partial curve]",
COc1ccccc1CNC(=O)CSc1ccsc1[N+](=O)[O-],inactive,
O=C(NCCN1CCOCC1)c1cc2sccc2n1Cc1ccc(Cl)cc1,"inconclusive [cytotoxic, single point]",
CCOC(=O)C1=CCN(S(=O)(=O)c2ccc(C)cc2)C1c1cccc(C)c1 (stereo unspecified),"inconclusive [cytotoxic, single point]",
COc1cccc(C(C)(O)c2nc(-c3ccc(N(C)C)cc3)cs2)c1 (stereo unspecified),"inconclusive [cytotoxic, partial curve]",
Cc1ccc(NC(=O)Cn2cccc2)cc1Cl,inactive,

Compound,Potency,"activity, negative = toxicity"
COc1ccc(O)c(CN2CCN(C/C=C/c3ccccc3)CC2)c1,"inconclusive [cytotoxic, single point]",
Cc1onc(-c2c(Cl)cccc2Cl)c1C(=O)O/N=C(\C#N)c1ccccc1,,inconclusive: -3.61% [cytotoxic]
C/C(=C\c1ccccc1)CN1CCN(C(C)C)C(CCO)C1 (stereo unspecified),inactive,
Cc1ccc2c(c1)C(=O)N1[C@H]3c4cc(C)ccc4OC[C@@H]3[C@H](c3ccccc3)[C@]1(C)C(=O)N2,active: 7.31 µM,
Clc1cccc(Cl)c1COc1ccccc1CNn1cnnc1,"inconclusive [cytotoxic, single point]",
CCC1CCc2sc(C(=O)NCC(c3ccc(OC)cc3)N3CCOCC3)cc2C1 (stereo unspecified),inactive,
COc1cccc(Cn2c(NCc3ccco3)nc3c2c(=O)n(C)c(=O)n3C)c1,inactive,
CCOc1ccccc1N1CC(C(=O)Nc2cc(Cl)ccc2-n2cncn2)CC1=O (stereo unspecified),inactive,
Nc1c([N+](=O)[O-])cc2c3c(cccc13)CC2,"inconclusive [cytotoxic, partial curve, poor fit]",
Cn1nc(C(F)(F)F)c(-c2ccc(Br)cc2)c1NC(=O)c1cccnc1,"inconclusive [cytotoxic, single point]",
Cc1ccc(C)c(N(CC(=O)NC2CCCC2)C(=O)CCC(=O)Nc2nccs2)c1,inactive,
O=C1Nc2ccccc2SC1c1ccccc1Cl (stereo unspecified),"inconclusive [cytotoxic, single point]",
O=[N+]([O-])c1ccc(N2CCN(Cc3ccc([N+](=O)[O-])o3)CC2)cc1,inactive,
CCN(CC)C(=O)c1cccc(-c2csc(C(O)c3ccccc3)n2)c1 (stereo unspecified),"inconclusive [cytotoxic, single point]",
Cc1nn(CC(=O)NC(C)C(C)C)c(C)c1S(=O)(=O)N1CCCCC1 (stereo unspecified),inactive,
Cc1cc(C)nc(NC(=NCCc2c[nH]c3ccccc23)NC(=O)Nc2ccc(Cl)cc2)n1,"inconclusive [cytotoxic, single point]",
COc1ccc(/C=C2\SC(=O)N(CC(=O)Nc3ccc(O)cc3)C2=O)cc1OC,"inconclusive [cytotoxic, full curve, poor fit]",
Cc1nn(C)c(C)c1CN(C)S(=O)(=O)c1ccc(F)cc1,"inconclusive [cytotoxic, single point]",
CCOC(=O)/C(C#N)=C/c1cc2ccccc2nc1Cl,"inconclusive [cytotoxic, full curve]",
O=C(NC1CCN(C(=O)N2c3ccccc3Sc3ccccc32)CC1)c1ccco1,active: 20.6 µM,
CCc1nc2c(OCc3cccc(Cl)c3)cccn2c1N(C)C(=O)C1CC1,"inconclusive [cytotoxic, partial curve, poor fit]",
COc1ccc(C(CNC(=O)c2cc3c(s2)CCC(C)C3)N2CCOCC2)cc1 (stereo unspecified),inactive,
CCOc1ccc(C(=O)Nc2cnn(Cc3ccc(Cl)c(Cl)c3)c2)cc1,"inconclusive [cytotoxic, single point]",
O=C(Nc1nc2ccccc2s1)c1cnccn1,"inconclusive [cytotoxic, single point]",

Compound,Potency,"activity, negative = toxicity"
O=C(Nc1cccc(C(F)(F)F)c1)c1cccnc1N1CCCC1,inactive,
CCOc1ccc(Cn2c3ccc(OC)cc3c3nc4ccccc4nc32)cc1OC,"inconclusive [cytotoxic, single point]",
Cc1cc2cc(C#N)c(NCCNC(=S)NCCCN3CCOCC3)nc2cc1C,"inconclusive [cytotoxic, single point]",
Cc1cc(O)ccc1-c1cc(C(=O)NCc2cc(C(F)(F)F)cc(C(F)(F)F)c2)[nH]n1,"inconclusive [cytotoxic, single point]",
COc1ccc(C2=CC(=O)C[C@H](c3ccc(Cl)cc3)C2)cc1,"inconclusive [cytotoxic, single point]",
CC1CN(CCCCOc2ccc(Cl)c3ccccc23)CC(C)O1 (stereo unspecified),"inconclusive [cytotoxic, partial curve]",
Fc1c(F)c(F)c(/C=N/NC(=S)Nc2cccnc2)c(F)c1F,active: 16.4 µM,
Cc1cccc2cc(CN(Cc3ccco3)C(=O)Nc3cccc(C#N)c3)c(Cl)nc12,active: 11.2 µM,
CCOc1ccc(/C=C/[N+](=O)[O-])c2ccccc12,active: 12.6 µM,
COc1cc(-c2nnc(SCc3cc(=O)oc4cc(O)c(O)cc34)o2)cc(OC)c1OC,"inconclusive [cytotoxic, single point]",
Cn1c(Nc2ccc(F)cc2)nc2ccccc21,,inconclusive: 31.4%
Cc1cc(C)c2cc(CN(Cc3nnnn3C3CCCCC3)CC3CCCO3)c(=O)[nH]c2c1 (stereo unspecified),"inconclusive [cytotoxic, single point]",
CCCCCCCCN1C(=O)[C@H](CC(=O)N2CCN(C(=O)OCC)CC2)C[C@@]2(C(=O)OC)CCCCC=C12,"inconclusive [cytotoxic, single point]",
Cc1sc2ncnc(SCC(=O)NNC(=O)COc3cccc4ccccc34)c2c1C,"inconclusive [cytotoxic, single point]",
CCOC(=O)c1csc(NC(=O)CN2CCN(C)CC2)n1,"inconclusive [cytotoxic, full curve, poor fit]",
CCOC(=O)c1cnc(SCc2nc(N)nc(Nc3ccc(F)cc3)n2)nc1N,"inconclusive [cytotoxic, partial curve]",
CC(C)(C)CC(=O)NC(=S)NCCc1ccccc1,active: 10 µM,
CC(C)Nc1nnc(SCC(=O)Nc2ccc(F)cc2)s1,"inconclusive [rising, single point]",
O=CNc1cc(-c2ccccc2)cn2c(-c3ccc(F)c(Cl)c3)cnc12,"inconclusive [cytotoxic, single point]",
O=C(Nc1sc2c(c1C(=O)O)CCCC2)c1ccc(Cl)cc1,"inconclusive [cytotoxic, single point]",
COc1ccc(S(=O)(=O)N(C)CC(=O)N2CCN(Cc3ccccc3)CC2)cc1C,"inconclusive [cytotoxic, single point]",
O=C(Nc1ccc(F)cc1)Nc1cc(OCC(F)(F)F)cc(OCC(F)(F)F)c1,active: 8.2 µM,
COc1ccc(C(=O)/C=C/c2ccc(OC)cc2OC)c(O)c1,inactive,
